Out of some 370,000 compounds screened, about 500 (0.14%) were called active. The inconclusive results got no clear call from the source; some entries with a clear call stand among them for comparison. The call rests on the fitted dose curve; in most records, active means well fitted activation curve with a large enough effect; inconclusive means small, poorly fitted or top-dose-only effect; inactive means no such curve, though single readings can be large or run the other way. Potencies of inconclusive entries are left out as doubtful fits.
Assay: qHTS of alpha-syn Inhibitors; further: nearly all actives have a fitted effect of over 65% in size; on growth rescue (activation): % of control where 0% means no effect
Details: Yeast expressing alpha-synuclein, BacTiter-Glo, 24 h; Potency: growth rescue unless noted; growth rescue (activation): at 46.1 µM (top of the series) unless noted
Summary of the method: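 Screening used galactose-induced yeast with toxic alpha-synuclein levels, exposed to compound for 24 hr at 30 deg C. Cell growth, read with BacTiter-Glo luminescence, gave the measured signal.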
Potency means the concentration at half of the fitted maximal effect; tags describe the fitted curve by direction and shape.

Row | SMILES | Potency | growth rescue (activation)
1 | CCN(Cc1ccccc1)S(=O)(=O)c1ccc(C(=O)Nc2nnc(C)o2)cc1 | inconclusive [activator, single point] | –
2 | Cc1ccc(C(=O)Nc2nc(-c3ccccn3)cs2)o1 | inconclusive [activator, single point] | –
3 | COc1ccc(Cl)cc1CN1C(=O)C(Cc2ccccc2)ON=C1C (centres undefined) | inconclusive [activator, partial curve] | –
4 | CC1CCN(S(=O)(=O)c2ccc(Br)s2)CC1 | inconclusive [activator, partial curve] | –
5 | CCOC(=O)c1ccc(NC(=S)P(=O)(c2ccccc2)c2ccccc2)cc1 | inconclusive [activator, single point] | –
6 | O=S(=O)(c1cccs1)N1CCN(c2ccc(Cl)cc2)CC1 | inconclusive [activator, partial curve] | –
7 | O=C(NCc1ccccc1)C(c1c(F)cccc1Cl)N(C(=O)c1csnn1)C1CC1 (centres undefined) | – | inactive: -5.26%
8 | CCOc1ccc(N=Nc2ccc(O)c3ncccc23)cc1 | active: 12.6 µM | –
9 | CCCc1c(C(=O)N/N=C(\C)c2ccc(CC(C)C)cc2)nnn1-c1nonc1N | inconclusive [activator, single point] | –
10 | CC1(c2nnc(-c3ccc(Cl)cc3)o2)CC(c2c(Cl)cccc2Cl)=NO1 (centres undefined) | – | inactive: -2.83%
11 | O=C(NC1CCCC1)c1cc(-c2cccs2)on1 | inconclusive [activator, single point] | –
12 | Cc1cc(-c2nnc3n2N=C(c2ccccc2Br)CS3)n[nH]1 | – | inactive: -1.01%
13 | O=C(c1cc(-c2ccc(O)cc2)on1)N1CCN(c2ccc(F)cc2)CC1 | – | inactive: 15.4%
14 | COc1ccccc1N(C(=O)c1ccncc1)c1nc(-c2ccc([N+](=O)[O-])cc2)cs1 | inconclusive [activator, single point] | –
15 | Cc1nc(SC2CC(=O)N(c3cc(Cl)cc(Cl)c3)C2=O)nc2c1CCCC2 (centres undefined) | inconclusive [activator, single point] | –
16 | CC1=CC(C)(C)N(S(=O)(=O)c2ccc(C)cc2)c2ccc(C)cc21 | inconclusive [activator, single point] | –
17 | COc1cc(NS(=O)(=O)c2ccc3c(c2)C(C)(C)C(=O)N3C)cc(OC)c1 | inconclusive [activator, single point] | –
18 | Cc1ccc(Cl)cc1NS(=O)(=O)c1ccccc1 | inconclusive [activator, partial curve] | –
19 | Cc1cccc2[nH]c3c(N4CCC5(CC4)OCCO5)ncnc3c12 | – | inactive: -17.4%

Reference: PubChem BioAssay AID652106 (National Center for Advancing Translational Sciences (NCATS), 2013)
